Test results from US20230416313A1 (NAVIGO PROTEINS, published 2023).

Target: T1, recombinant human complement factor H (CFH), isolated from moss (human, UniProt P08603 19-1231)
T1 construct: also called moss-FH; recombinant CFH
Assay: affinity chromatography, ligand on Praesto Epoxy 85, CFH supernatant
Description: (§1) Coupling parameter. Proteins were purified to homogeneity and coupled to resin for AIC experiments. […] Variants were successfully coupled to epoxy-activated Praesto 85 resin.
(§2) AIC experiments. Capturing and Elution. For initial column performance tests, resins were packed into superformance 50-5 column housing. Phosphate buffered saline pH 7.3 (PBS) was used to equilibrate the column, followed by applying of 10 mL of recombinant CFH expression supernatant (titer: 0.47 mg/mL) at 6 min residence time. Resin was then washed with PBS for 15 column volumes. Elution was performed at pH 3.5 using 100 mM Citric acid buffer followed by stripping of residual bound CFH at pH 2.0. Elution at pH 3.5 and pH 2.0 was calculated by UV 280 nm absorption.
SBC Determination. For SBC determination increased volumes (50 ml, titer: 0.75 mg/mL) of recombinant CFH expression supernatant were applied.

T1 sequence (P08603 19-1231 limits assumed): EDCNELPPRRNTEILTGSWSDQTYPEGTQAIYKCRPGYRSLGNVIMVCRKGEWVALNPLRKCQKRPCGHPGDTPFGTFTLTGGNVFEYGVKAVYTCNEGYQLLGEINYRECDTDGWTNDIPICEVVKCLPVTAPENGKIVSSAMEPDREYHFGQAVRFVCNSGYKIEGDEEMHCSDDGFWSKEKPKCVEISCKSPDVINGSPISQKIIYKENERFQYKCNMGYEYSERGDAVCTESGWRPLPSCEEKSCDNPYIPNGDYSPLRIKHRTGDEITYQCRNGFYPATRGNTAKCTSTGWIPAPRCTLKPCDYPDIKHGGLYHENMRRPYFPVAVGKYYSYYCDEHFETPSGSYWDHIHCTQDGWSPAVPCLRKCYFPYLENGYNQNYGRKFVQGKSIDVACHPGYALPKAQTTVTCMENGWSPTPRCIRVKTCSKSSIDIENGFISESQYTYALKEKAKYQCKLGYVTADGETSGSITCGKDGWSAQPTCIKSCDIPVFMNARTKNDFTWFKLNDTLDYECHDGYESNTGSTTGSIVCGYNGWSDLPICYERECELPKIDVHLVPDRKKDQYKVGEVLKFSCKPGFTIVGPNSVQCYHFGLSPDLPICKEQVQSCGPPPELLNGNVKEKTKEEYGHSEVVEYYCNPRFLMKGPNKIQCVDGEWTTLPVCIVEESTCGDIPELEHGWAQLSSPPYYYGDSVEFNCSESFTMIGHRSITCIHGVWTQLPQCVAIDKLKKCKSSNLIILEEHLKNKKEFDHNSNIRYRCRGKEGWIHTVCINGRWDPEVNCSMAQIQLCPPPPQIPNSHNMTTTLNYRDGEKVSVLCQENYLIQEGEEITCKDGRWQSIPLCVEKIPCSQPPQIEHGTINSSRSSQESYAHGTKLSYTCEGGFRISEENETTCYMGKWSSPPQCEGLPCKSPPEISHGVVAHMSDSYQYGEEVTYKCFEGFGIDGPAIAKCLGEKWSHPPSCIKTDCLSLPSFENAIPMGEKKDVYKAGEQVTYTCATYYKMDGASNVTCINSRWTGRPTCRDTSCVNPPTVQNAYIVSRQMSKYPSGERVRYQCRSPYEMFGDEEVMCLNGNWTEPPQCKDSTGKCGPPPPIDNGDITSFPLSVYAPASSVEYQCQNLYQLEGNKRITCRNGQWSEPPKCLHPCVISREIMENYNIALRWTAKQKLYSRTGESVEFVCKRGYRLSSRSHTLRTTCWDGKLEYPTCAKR

Binder | binding result
fusion protein of SEQ ID NO: 25 (CID213110) (designed binder) AKFDEAQTAAFWEIEHLPNLTEEQRWAFIWSLADDPSVSLEVLGEAQKLNDSQAPKIAAKFDEAQQAAFYEILHLPNLTEWQRNYFIQKLRDDPSVSLWVLGQAQILNDSQAPKIAAQHDKIQQAADKEILHLPNLTEEQRNKFRQSLRDDPSVSAEILAEAKKLNDAQAPKIAAQHDKIQQAADKEILHLPNLTEEQRNKFRQSLRDDPSVSAEILAEAKKLNDAQAPKIAAQHDKIQQAADKEILHLPNLTEEQRNKFRQSLRDDPSVSAEILAEAKKLNDAQAPK | binds

Target: T1, recombinant human complement factor H …
Assay: SPR (Example 3), ligand immobilized, soluble CFH injected
From the text: Purified proteins were immobilized via C-terminal Cysteine on a CM-5 sensor chip (GE Healthcare) using NHS/EDC after PDEA activation resulting in 110-140 RU with a Biacore 3000 system (GE Healthcare). The chip was equilibrated with SPR running buffer (PBS 0.05% Tween pH 7.3). Otherwise variants were immobilized via Streptag using rProtein A surface and an anti strep-tag antibody (Anti-[…], GenScript) for variant capturing.
Soluble recombinant CFH applied to the chip in serial dilutions (different concentrations) with a flow rate of 30 μl/min. The association was performed for 120 seconds and the dissociation for 120 seconds. After each run, the chip surface was regenerated with 30 μl regeneration buffer (10 mM glycine pH 2.0) and equilibrated with running buffer.

Binder | Kd [nM]
SEQ ID NO 7 (designed binder) IAAKFDEAQWAAFYEIVHLPNLTEEQREAFIQSLWDDPGVSLEVLGEAQKLNDSQAPKIAAKFDEAQQAAFYEILHLPNLTEAQRNHFIQRLRDDPSVSLVVLGQAQKLNDSQAPK | < 500
CFH binding protein of SEQ ID NO: 19 (CID 209860) (designed binder) IAAKFDEAQWAAFEEIAHLPNLTEEQREAFIQSLWDDPSVSLEVLGEAQKLNDSQAPKIAAKFDEAQQAAFYEILHLPNLTERQRNWFIQRLRDDPSVSLWVLGRAQRLNDSQAPK | < 500
SEQ ID NO 18 (designed binder) IAAKFDEAQWAAFYEIVHLPNLTEEQREAFIQSLWDDPSVSLEVLGEAQKLNDSQAPKIAAKFDEAQQAAFYEILHLPNLTERQRNWFIQQLRDDPSVSLTVLGRAQRLNDSQAPK | < 500

Target: T1, recombinant human complement factor H …
Assay: affinity chromatography, ligand on Praesto Epoxy 85, CFH supernatant bound in PBS pH 7.3, eluted at pH 3.5
Description: as §1, §2

Binder | Step Yield of CFH at pH 3.5 (percentage elution) [%]
CFH binding protein of SEQ ID NO: 11 (CID 209429) (designed binder, Coupled to Praesto Epoxy 85 resin) IAAKFDEAQQRAFYWILHLRNLTEEQRNAFIQSLRDDPSVSKEVLGEAYKLNKSQAPKIAAKFDEAQTAAFWEIWHLPNLTEEQRVAFIHSLQDDPSVSLEVLGEAQKLNDSQAPK | 96
CFH binding protein of SEQ ID NO: 12 (CID 209434) (designed binder, Coupled to Praesto Epoxy 85 resin) IAAKFDEAQQRAFYWILHLRNLTEEQRNAFIQSLRDDPSVSKEVLGEAYKLNVSQAPKIAAKFDEAQVAAFWEIWHLPNLTEEQRVAFIHSLQDDQSVSLEVLGEAQKLNDSQAPK | 95
CFH binding protein of SEQ ID NO: 21 (CID 209920) (designed binder, Coupled to Praesto Epoxy 85 resin) IAAKFDEAQQEAFYWILHLENLTEEQRNAFIQSLRDDPSVSEEVLGEALKLNVSQAPKIAAKFDEAQYAAFWEIQHLPNLTEEQRHAFIWSLLDDPSVSLEVLGEAQKLNDSQAPK | 89
CFH binding protein of SEQ ID NO: 22 (CID 209921) (designed binder, Coupled to Praesto Epoxy 85 resin) IAAKFDEAQQEWAFYHILHLYNLTEEQRNAFIQSLRDDPSVSQEVLGEAWKLNQSQAPKIAAKFDEAQYAAFWEIWHLPNLTEEQRWAFILSLHDDPSVSLEVLGEAQKLNDSQAPK | 91
CFH binding protein of SEQ ID NO: 10 (CID 209372) (designed binder, Coupled to Praesto Epoxy 85 resin) IAAKFDEAQWAAFYEIVHLPNLTEEQREAFIQSLWDDPSVSLEVLGEAQKLNDSQAPKIAAKFDEAQQAAFYEILHLPNLTEQQRNYFIQRLRDDPSVSLAVLGHAQKLNDSQAPK | 58
affinity ligand 209621 (SEQ ID NO: 13) (designed binder, coupled to Praesto Epoxy 85 resin in chromatography; also called Praesto_209621 (when immobilized)) IAAKFDEAQTAAFWEIEHLPNLTEEQRWAFIWSLADDPSVSLEVLGEAQKLNDSQAPKIAAKFDEAQQAAFYEILHLPNLTEWQRNYFIQKLRDDPSVSLWVLGQAQILNDSQAPK | 54
CFH binding protein of SEQ ID NO: 19 (CID 209860) (designed binder) IAAKFDEAQWAAFEEIAHLPNLTEEQREAFIQSLWDDPSVSLEVLGEAQKLNDSQAPKIAAKFDEAQQAAFYEILHLPNLTERQRNWFIQRLRDDPSVSLWVLGRAQRLNDSQAPK | 77
